Laboratory results as given in publication PMC3738564.
Results are given in words; binding and its absence hold for the method and conditions named. Binding seen in cells or lysates may run through a third protein. Some binding calls cover weakened binding; strength is not graded here.

Sequences of proteins named here, by UniProt entry; tags and fusion partners are left off.
UniProt Q8CC27: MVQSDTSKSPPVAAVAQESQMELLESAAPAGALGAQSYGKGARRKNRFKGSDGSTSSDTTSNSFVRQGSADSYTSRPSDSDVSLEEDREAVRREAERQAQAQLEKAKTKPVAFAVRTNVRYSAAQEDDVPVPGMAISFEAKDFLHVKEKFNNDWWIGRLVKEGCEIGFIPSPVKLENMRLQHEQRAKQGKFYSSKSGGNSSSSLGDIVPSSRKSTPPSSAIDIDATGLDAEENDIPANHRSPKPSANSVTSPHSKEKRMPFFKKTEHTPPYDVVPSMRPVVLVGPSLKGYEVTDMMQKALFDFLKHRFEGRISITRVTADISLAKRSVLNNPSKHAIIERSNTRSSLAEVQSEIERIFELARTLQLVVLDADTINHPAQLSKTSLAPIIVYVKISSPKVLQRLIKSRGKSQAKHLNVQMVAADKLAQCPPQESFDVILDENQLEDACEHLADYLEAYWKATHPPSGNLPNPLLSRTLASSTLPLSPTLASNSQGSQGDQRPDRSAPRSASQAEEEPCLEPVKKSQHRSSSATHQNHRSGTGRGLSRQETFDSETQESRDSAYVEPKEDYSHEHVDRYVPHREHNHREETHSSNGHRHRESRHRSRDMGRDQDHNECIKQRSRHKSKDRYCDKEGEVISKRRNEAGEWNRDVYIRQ

What was measured:
[1] = target: T1, β-dystroglycan (mouse (endogenous in skeletal muscle)) (UniProt Q62165); test: co-IP; β-dystroglycan precipitated with MANDAG2 from mdx (dystrophin-deficient) mouse quadriceps lysate (1% digitonin, 0.05% NP-40); Western blot
T1 sequence: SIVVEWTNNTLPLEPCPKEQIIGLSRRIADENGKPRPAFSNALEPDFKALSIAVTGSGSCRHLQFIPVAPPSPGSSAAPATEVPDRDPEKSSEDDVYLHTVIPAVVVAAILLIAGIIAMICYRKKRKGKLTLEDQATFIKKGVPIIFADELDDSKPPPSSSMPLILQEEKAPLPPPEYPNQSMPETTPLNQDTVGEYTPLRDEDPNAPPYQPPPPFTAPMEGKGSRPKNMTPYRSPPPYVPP

[2] = target: T1, β-dystroglycan (mouse (endogenous in skeletal muscle)); test: condition: only in mdx/Utrn-/- muscle (no dystrophin, no utrophin); co-IP; β-dystroglycan precipitated with MANDAG2 from mdx/Utrn-/- (no dystrophin, no utrophin) mouse quadriceps lysate (1% digitonin, 0.05% NP-40); Western blot
[3] = target: β2-regulatory subunit of voltage gated calcium channels (Cavβ2) (mouse (endogenous in skeletal muscle)) (UniProt Q8CC27); test: co-IP; reverse immunoprecipitation with an antibody to Cavβ2 from wild type quadriceps lysate (1% digitonin, 0.05% NP-40); control antibody MW8; Western blot
[4] = target: T1, β-dystroglycan (mouse (endogenous in skeletal muscle)); test: co-IP; β-dystroglycan precipitated with MANDAG2 on protein G beads from wild type mouse quadriceps lysate (1% digitonin, 0.05% NP-40; 1 mg protein); Western blot; also done on mdx and mdx/Utrn-/- lysates

B1: Polymerase I and transcript release factor (Cavin-1) (protein, UniProt O54724 1-392)
chain: MEDVTLHIVERPYSGFPDASSEGPEPTQGEARATEEPSGTGSDELIKSDQVNGVLVLSLLDKIIGAVDQIQLTQAQLEERQAEMEGAVQSIQGELSKLGKAHATTSNTVSKLLEKVRKVSVNVKTVRGSLERQAGQIKKLEVNEAELLRRRNFKVMIYQDEVKLPAKLSVSKSLKESEALPEKEGDELGEGERPEDDTAAIELSSDEAVEVEEVIEESRAERIKRSGLRRVDDFKKAFSKEKMEKTKVRTRENLEKTRLKTKENLEKTRHTLEKRMNKLGTRLVPVERREKLKTSRDKLRKSFTPDHVVYARSKTAVYKVPPFTFHVKKIREGEVEVLKATEMVEVGPEDDEVGAERGEATDLLRGSSPDVHTLLEITEESDAVLVDKSDSD
For B1, the binding [1] was “no binding (condition: in mdx muscle (no dystrophin))”, the binding [2] was “no binding” and the binding [3] was “no binding”. For the same binder, the binding [4] was “binds”.
